The text below walks through data of PubChem BioAssay AID1645882 (National Center for Advancing Translational Sciences (NCATS), 2021).

The structures appear in SMILES notation. In all, about 16,000 compounds went through this assay and about 120 (0.75%) were called active. Not shown: some 4% with an inconclusive outcome. The call rests on the fitted dose curve; in most records, active means well fitted inhibition curve with a large enough effect; inconclusive means small, poorly fitted or top-dose-only effect; inactive means no such curve, though single readings can be large or run the other way. This is one part of the list. Where a SMILES comes first, the peptide text is derived from it. Bridges are numbered along the chain shown (N, C = ends). [ ]: non-standard residue; d: D form. The star is where a group is joined. pGlu = O=C1CC[C@@H](C(=O)O)N1; X4 = CC[C@H](C)CCCCC(=O)*; Dab = NCC[C@H](N)C(=O)O

UniProt O95398, sequence (O95398 whole entry, looked up): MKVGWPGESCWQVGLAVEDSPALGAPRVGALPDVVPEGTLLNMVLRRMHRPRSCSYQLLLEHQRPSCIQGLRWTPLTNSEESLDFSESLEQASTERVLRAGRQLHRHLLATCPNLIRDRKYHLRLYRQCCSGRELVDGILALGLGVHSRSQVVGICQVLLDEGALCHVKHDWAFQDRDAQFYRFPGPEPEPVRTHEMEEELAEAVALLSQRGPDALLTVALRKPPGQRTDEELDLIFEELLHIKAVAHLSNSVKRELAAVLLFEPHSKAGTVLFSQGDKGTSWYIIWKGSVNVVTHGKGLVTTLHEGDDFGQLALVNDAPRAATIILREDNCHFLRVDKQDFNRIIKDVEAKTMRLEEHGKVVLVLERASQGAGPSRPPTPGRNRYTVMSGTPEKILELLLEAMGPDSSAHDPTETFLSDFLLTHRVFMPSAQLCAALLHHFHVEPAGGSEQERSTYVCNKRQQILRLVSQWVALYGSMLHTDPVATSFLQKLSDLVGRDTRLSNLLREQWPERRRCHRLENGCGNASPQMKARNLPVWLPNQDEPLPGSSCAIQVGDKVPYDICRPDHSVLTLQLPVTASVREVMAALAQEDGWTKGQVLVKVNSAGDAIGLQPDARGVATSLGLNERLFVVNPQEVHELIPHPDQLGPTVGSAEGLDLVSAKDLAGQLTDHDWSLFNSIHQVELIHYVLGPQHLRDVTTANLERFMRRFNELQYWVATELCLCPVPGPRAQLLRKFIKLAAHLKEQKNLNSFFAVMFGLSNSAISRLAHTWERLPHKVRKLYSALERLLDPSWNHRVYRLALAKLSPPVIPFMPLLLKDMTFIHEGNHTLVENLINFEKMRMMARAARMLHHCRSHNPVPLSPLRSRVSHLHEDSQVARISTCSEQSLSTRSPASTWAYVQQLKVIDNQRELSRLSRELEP

For the assay, the target named is Rap guanine nucleotide exchange factor 3 (Homo sapiens) (UniProt O95398). In words: Validation qHTS for antagonist of cAMP-regulated guanine nucleotide exchange factor 3 (EPAC1).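 Further: plate controls were DMSO for no effect and ATA control for full effect; nearly all actives have a fitted effect of over 75% in size.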 The settings on record: EPAC1 Rap1B-BODIPY-GDP exchange, fluorescence; series mostly up to 150 µM; activity change, negative = inhibition: at the top concentration. In short, it runs like this:
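Nucleotide exchange followed as fluorescence loss when BODIPY-GDP leaves Rap1B (480 nm excitation, 540 nm emission), read at 5 min intervals over 30 min. Reaction: 100 nM EPAC1, 250 nM RAP1B-BODIPY-GDP, 50 uM GDP; ATA and DMSO define normalization.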
On the technique in general: In qHTS, concentration-response curves come from the screen itself.
Regarding `NC(=O)[C@@H]1C[C@]2(NC(=O)NC2=O)c2cc(F)ccc2O1`, the “activity change, negative = inhibition” value is inactive: 15.4%. To `COCCNc1ccnc(-c2ccccc2C)n1` belongs inactive: 11.3%; to `CC(C)C1=CC2=CC[C@H]3[C@](C)(C(=O)O)CCC[C@]3(C)C2CC1` (some centres undefined), inactive: 0.812%; to `CO/N=C(\C(=O)N[C@@H]1C(=O)N2C(C(=O)O)=C(CSC(=O)c3ccco3)CS[C@H]12)c1csc(N)n1`, inactive: 22.9%.

For `N[C@@H]1CCN(O)C1=O`, the “activity change, negative = inhibition” value was inactive: 1.34%.

As for `CC(=O)Nc1ccc(OCC(O)CNC(C)C)cc1` (centres undefined), the “activity change, negative = inhibition” value was inactive: 10.3%.

Take `COc1ccc(Oc2ncc3nc(CCc4ccccc4)c(=O)n(C4CC4)c3n2)cc1`: the “activity change, negative = inhibition” value was inactive: -0.444%. To `O=C(c1csnn1)N1CCC2(CC1)CN(c1cccc(-c3ccccc3)c1)C2` belongs inactive: -8.07%; to `COc1ccc(-c2ccnc(-n3ncc(C(=O)NCc4ccon4)c3C3CC3)n2)cc1F`, inactive: 13%. To `C#CCCCCCCCCCCCCCCCC(=O)O` belongs “inactive”. With `C[N+](C)(C)CCC(=O)c1cccc2ccccc12` the figure was inactive: 29.6%; with `N#CCCn1c(=O)c(-c2ccc(Cl)cc2)nc2cnc(N3CCOCC3)nc21`, inactive: 19.7%; with `CC[C@H](C)CCCCC(=O)N[C@@H](CCN)C(=O)N[C@H](C(=O)N[C@@H](CCN)C(=O)N[C@H]1CCNC(=O)[C@@H]([C@H](C)O)NC(=O)[C@H](CCN)NC(=O)[C@H](CCN)NC(=O)[C@H](CC(C)C)NC(=O)[C@@H](CC(C)C)NC(=O)[C@H](CCN)NC1=O)[C@@H](C)O` (X4-[Dab]T[Dab][Dab][Dab][dL]L[Dab][Dab][dT]; lactam 4-C), inactive: -8.49% [at 75.8 µM].

Take `CC[C@H](C)[C@H](NC(=O)[C@H](Cc1ccccc1)NC(=O)[C@H](C)NC(=O)[C@H](CC(=O)O)NC(=O)[C@H](CCCCN)NC(=O)[C@H](CO)NC(=O)[C@@H]1CCCN1C(=O)[C@@H]1CCC(=O)N1)C(=O)NCC(=O)N[C@@H](CC(C)C)C(=O)N[C@@H](CCSC)C(N)=O` ([pGlu]PSKDAFIGLM-NH2): the “activity change, negative = inhibition” value is inactive: 10.8%. `C[C@@H]1O[C@@H](OC[C@H]2O[C@@H](Oc3c(-c4ccc(O)c(O)c4)oc4cc(O)cc(O)c4c3=O)[C@H](O)[C@@H](O)[C@@H]2O)[C@H](O)[C@H](O)[C@H]1O`: the “activity change, negative = inhibition” value is inactive: 19.2%. With `COC(=O)/C=C/c1cc(F)ccc1S(=O)(=O)Nc1ccccc1` the figure was inactive: -17.2%; with `C[C@@H]1CN(Cc2ccc3c(c2)CN(Cc2nc(-c4ccccc4)cs2)CCO3)C[C@H](C)O1`, inactive: -6.26%; with `Cc1noc(C)c1C(=O)N1CCC[C@@]2(CCN(c3ccccc3)C2)C1`, inactive: 4.29%. To `CC(=O)N1CCC[C@H]1C(=O)NCC1Cc2cc(-c3cnccn3)cc(Cl)c2O1` (some centres undefined) belongs inactive: 8.73%; to `COCCn1c(=O)c(-c2cc(F)cc(F)c2)nc2cnc(N3CCNCC3)nc21`, inactive: 9.7%; to `CCCC(=O)Nc1ccc(OCC(O)CNC(C)C)c(C(C)=O)c1` (centres undefined), “inactive”. To `COc1ccc(Oc2ncc3nc(CCc4ccccc4)c(=O)n(C[C@H]4CCCO4)c3n2)cc1` belongs inactive: 5.27%; to `N=C(N=C(N)N)N1CCOCC1`, inactive: 1.48% [at 75.8 µM]; to `Nc1ccn([C@@H]2O[C@H](CO)[C@@H](OP(=O)(O)O)[C@H]2O)c(=O)n1`, inactive: 8.02%. As for `c1ccc(CNc2nc(-c3cccnc3)nc3ccccc23)cc1`, the “activity change, negative = inhibition” value was inactive: -2.41%. To `C[C@H](O)CO[C@H]1[C@H]2O[C@H]3[C@H](O)[C@@H](O)[C@@H](O[C@H]4[C@H](O)[C@@H](O)[C@@H](O[C@H]5[C@H](O)[C@@H](O)[C@@H](O[C@H]6[C@H](O)[C@@H](OC[C@H](C)O)[C@@H](O[C@H]7[C@H](O)[C@@H](OC[C@H](C)O)[C@@H](O[C@H]8[C@H](O)[C@@H](O)[C@@H](O[C@@H]([C@@H]1O)[C@@H](CO)O2)O[C@@H]8CO)O[C@@H]7CO)O[C@@H]6CO)O[C@@H]5CO)O[C@@H]4CO)O[C@@H]3CO` belongs inactive: -12.1%; to `Nc1nc(N)c(N=O)c(N)n1`, inactive: -8.93%. To `Cc1cc(OI)c(C(C)C)cc1-c1cc(C(C)C)c(OI)cc1C` belongs inactive: -5.09%.

Turning to `COc1cc(O)c(C(=O)/C=C/c2ccc(O)c(OC)c2)c(OC)c1`, the “activity change, negative = inhibition” value was inactive: 28.3%. To `CO[C@@H]1[C@@H](O[C@@H]2O[C@H](C)[C@@H](O[C@H]3C[C@@](C)(O)[C@@H](O)[C@H](C)O3)[C@H](N(C)C)[C@H]2O)[C@@H](CC=O)C[C@@H](C)[C@@H](O[C@@H]2CC[C@H](N(C)C)[C@@H](C)O2)/C=C/C=C/C[C@@H](C)OC(=O)C[C@H]1OC(C)=O` belongs inactive: 52.5%; to `Cc1noc(C)c1-c1nccc(NCCN2CCOCC2)n1`, inactive: 11.3%; to `Cc1nc([N+](=O)[O-])cn1-c1ccc([N+](=O)[O-])cc1`, inactive: 15.6%. With `Cc1cccc(CNc2cc(-c3ccccc3CN(C)C)ncn2)c1` the figure was inactive: 22%; with `CC(O)c1nc2ccccc2[nH]1` (centres undefined), inactive: 5.07%. With `CN(C)C(=O)c1ccc(-c2nc(N(C)Cc3ccco3)c3ccccc3n2)cc1` the figure was inactive: -13.5%; with `O=C(Nc1ccccc1)N1CC2(CCN(C(=O)c3ccncc3)CC2)C1`, inactive: 13.9%. For the compound `CC(=O)OCC(=O)[C@@]12OC3(CCCC3)O[C@@H]1C[C@H]1[C@@H]3CCC4=CC(=O)C=C[C@]4(C)[C@@]3(F)[C@@H](O)C[C@@]12C`, the “activity change, negative = inhibition” value was inactive: -11.1%.

As for `Cc1noc(C)c1-c1ccc2ncnc(N(C)Cc3ccco3)c2c1`, the “activity change, negative = inhibition” value was inactive: 8.68%. To `COc1cc(=O)n2c(c1C(=O)N(C)Cc1nccs1)CCN(Cc1cc(C)cc(C)c1)CC2` belongs inactive: 18.4%; to `C[C@H](Cc1ccccc1)Nc1ncnc2c1ncn2[C@@H]1O[C@H](CO)[C@@H](O)[C@H]1O`, “inactive”. As for `Cc1ccccc1-c1cncnc1N1CCN(C)CC1`, the “activity change, negative = inhibition” value is inactive: 18.7%. With `COc1ccccc1CN1CC[C@@]2(CCCN(C(=O)c3cnccn3)C2)C1` the figure was inactive: 2.13%.

`COc1cc(-c2c(-c3cc(OC)c(OC)c(OC)c3)noc2C)ccc1F`: the “activity change, negative = inhibition” value is inactive: -2.64%. With `Cc1oc(=O)oc1CN1CCN(c2cc3c(cc2F)c(=O)c(C(=O)O)c2n3C(C)S2)CC1` (centres undefined) the figure was inactive: 7.8%.
